# Test results taken from PubChem BioAssay AID463173 (ICCB-Longwood Screening Facility, Harvard Medical School, 2010).
# Among all 52,000 compounds or so, about 4,300 (8.3%) were called active. No stated cut-off is given here; in the data, active means survival mostly below about 52% (no sharp cut-off); inactive means mostly above about 56%. The list shows a part of the results.
# Test system: DeltatarO mutant
# Experiment: growth inhibition of S. aureus wild type versus tarO mutant, primary screen, teichoic acid synthesis inhibitors, RN4220, OD600 (AID 463173)
# Conditions: OD600, 18 h, hits give low values, screened at 18.75 µg/mL (by protocol)
row,SMILES,survival
1,CN1CCN(C(=O)Cn2ncc3c4ccccc4n(Cc4ccc(F)cc4)c3c2=O)CC1,inactive: 78%
2,O=C(c1ccc(Br)cc1)N(Cc1cccs1)c1ccc(F)cc1,inactive: 61%
3,Cn1c(=O)c2cc(C(=O)NC3CCCCCC3)sc2c2ccccc21,inactive: 69%
4,CCOc1ccc(CN2CCc3nc(N4CCN(c5ccccn5)CC4)ncc3C2)cc1OC,inactive: 120%
5,O=C(Cn1ncc2c3ccccc3n(Cc3ccccc3)c2c1=O)NC1CCCCCC1,inactive: 123%
6,COc1ccc(NC(=O)C(CC(C)C)NC(=O)C2CCCCC2)cc1 (centres undefined),inactive: 69%
7,COc1ccc(-c2coc3c2c(C)cc2oc(=O)c(CC(=O)O)c(C)c23)cc1,active: 42%
8,COc1ccccc1CN1CCNC(=O)C1=O,inactive: 78%
9,CCOc1ccc(/C=C(\C(=O)N2CCCC2)n2ccccc2=O)cc1,inactive: 74%
10,COc1ccc(N(Cc2nnc3n2CCCCC3)C(=O)Nc2cccc(C)c2)cc1Cl,inactive: 81%
11,Cc1ccc(NC(=O)CN2C(=O)COc3ccc(S(=O)(=O)NC4CCCC4)cc32)c(Cl)c1,inactive: 75%
12,CN(Cc1ccccc1)C1CCNCC1,inactive: 90%
13,Cc1ccc(NC(=O)Cn2c(=O)n(Cc3ccc4c(c3)OCO4)c(=O)c3ccccc32)cc1,inactive: 86%
14,COc1ccc(-c2cn3c(n2)sc2cc(C(=O)NCc4cccc(F)c4)ccc23)cc1,inactive: 80%
15,Cc1ccc(C(=O)c2cn(Cc3ccccc3C)c3nc(C)ccc3c2=O)cc1,inactive: 80%
16,Cc1ccccc1-c1cc2nccc(-c3cc(Cl)ccc3O)n2n1,inactive: 69%
17,CCCc1cnc2c(c1SCc1cccc(F)c1)c(=O)n(C)c(=O)n2C,inactive: 76%
18,Cc1oc2c(cc(NS(=O)(=O)c3ccc(Cl)cc3)c3ccccc32)c1C(=O)OCc1ccccc1,inactive: 52%
19,CCCc1noc(-c2ccc(NCc3ccc(C)cc3)c([N+](=O)[O-])c2)n1,inactive: 82%
20,NC(=O)Nc1nc2cc(Cl)cc(Cl)c2[nH]c1=O,inactive: 96%

row,SMILES,survival
1,COc1ccc(CNC(=O)Cc2csc3nc(-c4ccc(F)cc4)cn23)cc1,inactive: 81%
2,COc1ccc(N(Cc2cccs2)C(=O)Nc2cccc(Cl)c2)cc1,inactive: 69%
3,CCOC(=O)C1CCCN(S(=O)(=O)c2ccc3c(c2)oc(=O)n3C)C1 (centres undefined),inactive: 96%
4,COc1ccc(C2CC(=O)N(CC(=O)Nc3ccc(C)c(Cl)c3)c3ccccc3S2)cc1OC (centres undefined),inactive: 88%
5,CCOc1ccc(NC(=O)C(=O)NCC(c2cccnc2)N2CCc3ccccc32)cc1 (centres undefined),inactive: 44%
6,COc1ccc(-c2nc(SCC(=O)NC3CCCC3)c(-c3ccc(C)cc3)[nH]2)cc1OC,inactive: 57%
7,Cc1c(C(=O)N2CCOCC2)sc(NC(=O)c2ccc3c(c2)OCO3)c1C#N,inactive: 90%
8,Cc1ccccc1NC(=O)CCN1C(=O)c2ccccc2Sc2ncccc21,inactive: 74%
9,COc1cccc(NC(=O)CCc2c(C)nc3ncnn3c2C)c1,inactive: 95%
10,CCc1ccc(Nc2nnc(-n3nc(C)cc3C)c3ccccc23)cc1,inactive: 121%
11,COc1ccc(CNC(=O)c2cnc3sc(N4CCCC4)nn3c2=O)c(OC)c1,inactive: 70%
12,CSc1ccccc1NC(=O)CCS(=O)(=O)c1nc(-c2cccs2)cc(C(F)(F)F)n1,inactive: 79%
13,Cc1ccc(NC(=O)CSc2nnc(-c3cc4occc4n3C)n2-c2ccccc2C)cc1F,inactive: 86%
14,COc1ccc(C(=O)N=c2sc3cc(Cl)ccc3n2C)cc1,inactive: 71%
15,COC(=O)c1csc(N)n1,inactive: 95%
16,CCN(CC)CCOC(=O)c1ccc(NC(=O)CCn2c(=O)oc3ccccc32)cc1,active: 45%
17,Cc1ccc(-n2c(=O)c3sccc3n(Cc3cc(=O)n4ccccc4n3)c2=O)cc1,active: 63%
18,COc1ccc(C(=O)N2CCC(C(=O)Nc3ccc(OC)cc3OC)CC2)cc1,inactive: 58%
19,CCN(C(=O)Cn1nc(Cc2cccnc2)c2ccccc2c1=O)c1cc(C)ccc1C,inactive: 80%
20,COc1cc(N(C(=O)Cn2nnc3ccccc32)C(C(=O)NCC2CCCO2)c2cccn2C)ccc1-n1cnnn1 (centres undefined),inactive: 111%

row,SMILES,survival
1,Cc1nnsc1C(=O)Oc1ccccc1Cl,inactive: 83%
2,CCC(=O)N1CCc2cc(S(=O)(=O)NCCC(=O)Nc3cccc(C)c3C)ccc21,inactive: 123%
3,Cc1cc(SCC(=O)NCc2ccccc2)nc(=O)[nH]1,inactive: 94%
4,COc1cccc(CNc2ccc3c(c2)ncn3C)c1OC,inactive: 122%
5,COc1ccc(OC)c(CCNC(=O)C(C)n2nc(C)c3c(C)n(-c4ccc(C)cc4)nc3c2=O)c1 (centres undefined),inactive: 76%
6,CCOc1ccccc1NC(=O)C1CCCN(S(=O)(=O)c2ccc3c(c2)CCCN3C(C)=O)C1 (centres undefined),inactive: 55%
7,O=C(NCc1ccccc1Br)c1ccc(-n2cnc3cccnc32)cc1,inactive: 129%
8,COc1ccc(N(CC(=O)Nc2ccc(Cl)cc2C)S(=O)(=O)c2ccccc2)c(OC)c1,inactive: 113%
9,COc1cc(-c2nnc(SCC(=O)N3CCCc4ccccc43)o2)cc(OC)c1OC,inactive: 66%
10,CCc1ccc(S(=O)(=O)c2nnn3c2nc(Nc2cccc(C)c2C)c2sccc23)cc1,inactive: 79%
11,CN(C)C(=O)Cn1c2[n+](c3ccccc31)CC(O)CS2 (centres undefined),inactive: 66%
12,N#Cc1ccccc1NC(=O)C(=O)NCC(c1cccnc1)N1CCc2ccccc2C1 (centres undefined),inactive: 66%
13,O=C(Nc1cccc(F)c1)N1C2CCC1CC(O)(c1cccnc1)C2 (centres undefined),inactive: 83%
14,COC(=O)C1C(=O)C2=C(CC1C)Nc1ccccc1NC2c1ccc(C)cc1 (centres undefined),inactive: 79%
15,CCC1=NN(C(=O)C(C)C)C(O)(C(F)(F)F)C1 (centres undefined),inactive: 91%
16,O=C(Cn1nc2c(cc1=O)CCCC2)NCc1ccccc1Cl,inactive: 144%
17,Cc1ccc(C(=O)Nc2nnc(SCc3cc(=O)n4ccc(C)cc4n3)s2)cc1,inactive: 109%
18,Cc1cc(C)cc(NC(=O)Cn2nnc(C(=O)NCc3ccco3)c2N)c1,inactive: 88%
19,O=C(CN1C(=O)COc2ccc(S(=O)(=O)N3CCCCCC3)cc21)N1CCN(c2ccccc2)CC1,inactive: 79%
